# Among all 310,000 compounds or so, about 14,000 (4.5%) showed an effect of 50% or more. Effects have a minus sign here. Some of the results follow.
# Biological target: human ether-à-go-go-related gene (hERG) potassium channel (human, UniProt Q12809)
# Experiment: primary screen, population patch clamp on CHO cells stably expressing hERG
# 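Note: peak tail current of the secondary pulse compared with the same well before compound.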
# Chain of human ether-à-go-go-related gene (hERG) potassium channel (Q12809 whole entry, looked up): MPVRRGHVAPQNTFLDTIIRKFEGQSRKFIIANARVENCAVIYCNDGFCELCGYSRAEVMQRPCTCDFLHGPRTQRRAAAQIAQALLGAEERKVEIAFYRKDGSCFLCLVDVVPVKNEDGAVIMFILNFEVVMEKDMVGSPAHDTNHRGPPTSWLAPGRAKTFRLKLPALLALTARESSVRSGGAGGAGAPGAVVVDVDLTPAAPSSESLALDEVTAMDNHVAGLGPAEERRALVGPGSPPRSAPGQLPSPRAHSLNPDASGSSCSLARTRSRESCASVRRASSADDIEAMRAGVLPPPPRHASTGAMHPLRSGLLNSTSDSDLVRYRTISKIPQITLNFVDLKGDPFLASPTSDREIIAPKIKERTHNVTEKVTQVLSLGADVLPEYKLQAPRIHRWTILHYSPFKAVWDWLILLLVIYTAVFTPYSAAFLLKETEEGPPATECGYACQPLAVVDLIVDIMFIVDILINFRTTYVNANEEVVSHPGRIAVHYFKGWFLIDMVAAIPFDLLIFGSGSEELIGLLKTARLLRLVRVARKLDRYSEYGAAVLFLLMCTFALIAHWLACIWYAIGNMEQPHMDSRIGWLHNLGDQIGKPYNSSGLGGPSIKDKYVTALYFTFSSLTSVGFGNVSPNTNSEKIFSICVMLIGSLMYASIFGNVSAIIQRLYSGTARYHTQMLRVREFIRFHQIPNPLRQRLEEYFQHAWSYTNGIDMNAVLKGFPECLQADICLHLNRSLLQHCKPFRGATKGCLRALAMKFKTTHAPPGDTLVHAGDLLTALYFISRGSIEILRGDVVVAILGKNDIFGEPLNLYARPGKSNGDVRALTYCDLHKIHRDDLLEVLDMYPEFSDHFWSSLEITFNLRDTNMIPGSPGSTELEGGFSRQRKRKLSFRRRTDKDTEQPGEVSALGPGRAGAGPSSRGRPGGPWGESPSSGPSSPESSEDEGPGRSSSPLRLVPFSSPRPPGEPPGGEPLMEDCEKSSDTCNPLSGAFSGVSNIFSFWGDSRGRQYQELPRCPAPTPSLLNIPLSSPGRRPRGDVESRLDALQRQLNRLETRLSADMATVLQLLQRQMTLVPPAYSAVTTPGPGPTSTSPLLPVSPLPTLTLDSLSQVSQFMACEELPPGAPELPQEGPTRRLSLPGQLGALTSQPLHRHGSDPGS
row,SMILES,"hERG current change (%, negative = inhibition) at 10uM [%]"
1,CCN(CC(=O)Nc1ccc2c(c1)OCO2)CC(=O)Nc1ccccc1C(F)(F)F,-14.4
2,Cc1ncc(CN2CCCC(C(=O)Nc3ccc(-c4ccco4)cc3)C2)n1C (stereo not shown),-59.6
3,CC1CCN(S(=O)(=O)c2cc3c4c(c2)CCN4C(=O)CC3)CC1,-19.3
4,c1csc(-c2nc(N3CCOCC3)c3ccccc3n2)c1,-10.1
5,CCCOc1ccc(Oc2nc(-c3ccncc3)nc3ccccc23)cc1,-0.829
6,COc1ccccc1N(CC(=O)Nc1ccc2c(c1)OCCO2)S(C)(=O)=O,-1.7
7,O=C(Cc1ccc([N+](=O)[O-])cc1)NNC(=O)c1cccs1,-8.27
8,CS(=O)(=O)N(CC(=O)Nc1ccc(F)c(F)c1)c1cccc([N+](=O)[O-])c1,-46.6
9,COc1ccc(Cl)cc1NC(=O)CSc1nc(N2CCCCC2)nc(N2CCCCC2)n1,13.3
10,Cn1c(SCC(=O)OC2CCCCC2)nnc1-c1ccco1,0.11
11,C/C=C/COC(=O)C1=C(C)NC(=O)NC1c1ccc2c(c1)OCO2 (stereo not shown),7.01
12,COc1ccc(N2CC(C(=O)NCc3ccccc3)CC2=O)cc1 (stereo not shown),3.67
13,Cc1c(NC(=O)CSc2ncn[nH]2)c(=O)n(-c2ccccc2)n1C,24.4
14,C=CCN(c1ccccc1)S(=O)(=O)c1cc2c(cc1C)NC(=O)CO2,-17.6
15,CCOc1cccc(-c2c(C(=O)N/N=C/c3c(F)cccc3Cl)nnn2-c2nonc2N)c1,6.72
16,O=P(Nc1cccc(F)c1)(Oc1ccccc1F)Oc1ccccc1F,4.58
17,C#CCn1ccc(O)c(Cc2c(F)cccc2Cl)c1=O,8.2
18,O=c1cc(CSc2nnc(COc3ccccc3)n2-c2ccccc2)c2ccccc2[nH]1,-14.6
19,COCCCNC(=O)C(=O)NC1CCCCCC1,13.8
20,COc1ccc(-c2nc(CSCC(=O)NCc3ccco3)c(C)o2)cc1,-3.31

row,SMILES,"hERG current change (%, negative = inhibition) at 10uM [%]"
1,COc1ccc(C(CNC(=O)COc2ccccc2OC)N(C)C)cc1OC (stereo not shown),4.82
2,Brc1c(CSc2nncn2-c2ccccc2)nc2sccn12,7.63
3,Clc1ccc(CSc2nc3ccncc3[nH]2)cc1,-6.8
4,CC(C)(Oc1ccc(Cl)cc1)C(=O)NCC(c1cccs1)N1CCOCC1 (stereo not shown),-5.84
5,C=C(C)CN(CC)C(=O)CC1C(=O)NCCN1CC(C)(C)C (stereo not shown),1.9
6,O=C(/C=C/c1cccnc1)c1ccccc1O,2.4
7,COc1ccc(C(CNC(=O)CCNC(=O)c2ccccc2Cl)N2CCCC2)cc1 (stereo not shown),6.42
8,CSc1sc(C(=O)NCC2CC2)c2c1S(=O)(=O)N(C)c1ccccc1-2,10.2
9,Cc1cc(C)n2nc(C(=O)NNC(=O)c3ccc(Cl)cc3)nc2n1,-15.2
10,NS(=O)(=O)c1cccc(NC(=O)/C=C/c2cccs2)c1,4.08
11,CCOC(=O)C1CCCCN1C(=O)CCc1c(C)nc2ncnn2c1C (stereo not shown),1.42
12,Cc1ccc(NC(=O)Cc2nnc(SCC(=O)NC3=NCCS3)n2C)cc1,12.4
13,COc1cccc(C2=NN(C(=O)c3ccco3)C(c3ccco3)C2)c1 (stereo not shown),-23.8
14,CC(C)C[C@H](NC(=O)Nc1cccc(C(F)(F)F)c1)C(=O)O,2.53
15,CCC(=O)NC(c1ccc(OC)cc1)c1cc(Cl)c2cccnc2c1O (stereo not shown),31.8
16,COc1ccc(/C=N/N2CCN(C)CC2)cc1OC,7.33
17,COc1ccc(CCC(=O)Nc2c(C)n(C)n(-c3ccccc3)c2=O)cc1,23.7
18,c1coc(-c2nnc3sc(Cc4cccs4)nn23)c1,-22.9
19,O=C(COC(=O)c1cnccn1)NCc1ccccc1,12.3
20,COCCNC(=O)C1CCCN(S(=O)(=O)c2ccc3c(c2)CC(C)N3C(=O)C2CC2)C1 (stereo not shown),-8.97

row,SMILES,"hERG current change (%, negative = inhibition) at 10uM [%]"
1,CCN(CC)CCC(c1ccc2c(c1)OCO2)c1c(O)cc(OC)cc1OC (stereo not shown),-73.4
2,CCn1cc(CCCC(=O)NCc2ccc(OC)cc2)c2ccccc21,1.54
3,CCOC(=O)c1c[nH]c(=O)c(Br)c1O,17.4
4,Cc1cccc(OCC(=O)Nc2ccc(C(=O)NCC(C)C)cc2)c1,-0.384
5,CCOC(=O)c1ccc(N2C(=O)c3n[nH]c(C)c3C2c2ccccn2)cc1 (stereo not shown),-8.28
6,CCC(C)(C(=O)NC1CCCC1)N(C(=O)CC1NC(=O)NC1=O)c1ccc(C)cc1 (stereo not shown),3.09
7,CC(OC(=O)c1nc(Cl)ccc1Cl)C(=O)NC1CCCCC1C (stereo not shown),13.8
8,O=C(CSc1ccccc1)N1CCCC(N2CCN(c3ccc(F)cc3)CC2)C1 (stereo not shown),-75.3
9,COc1ccc(Cl)cc1NC(=O)Cc1c(F)cccc1Cl,6
10,CC(C)C(=O)Nc1nnc(SCC(=O)N2c3ccccc3CC2C)s1 (stereo not shown),5.13
11,Cc1ccc(-n2c(SCC(=O)OC(C)C)nnc2-c2cnccn2)cc1,0.436
12,Cc1ccc(C)c(OCCC(=O)Nc2cccc(S(=O)(=O)N3CCCCC3)c2)c1,-24.3
13,CCC(C)NC(=O)NCc1ccccc1F (stereo not shown),14
14,COC(=O)C1=C(C)N(Cc2ccccc2)C(=NCc2ccccc2)N[C@H]1c1cccc(F)c1,-11.5
15,COc1cc2cc(C(c3nnnn3C3CCCCC3)N(C)C3CCCCC3)c(=O)[nH]c2cc1OC (stereo not shown),-21.7
16,O=C(O)C1=C[C@H](c2coc3ccccc3c2=O)C[C@H](OCCCCO)O1,3.91
17,Cc1onc(-c2ccccc2)c1C(=O)n1nnc2ccccc21,8.17
18,CS(=O)(=O)c1nc(S(=O)(=O)c2ccc(Cl)cc2)c(NCCCN2CCOCC2)s1,-46.8
